The other results are listed elsewhere or left out.

In the experiment the test system is PfAP2-HC AP2 domain (GST-tagged). Description: gcPBM binding intensity (ln(normalized median fluorescence intensity)); higher = stronger DNA binding. The gist of the method: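 After 1 h on an Agilent 4 × 180k array of primer-extended double-stranded 36-bp intergenic genomic probes and negative controls, bound GST-tagged P. falciparum DNA-binding domains were detected with Alexa488 anti-GST antibody and scanned at 488 nm. The domains had been expressed in E. coli, and binding took place in 1× PBS with 1% milk, 0.2 mg/ml BSA, 0.5% salmon testes DNA and 0.03% Triton X-100. Binding intensity is the highest Masliner-normalised natural-log median intensity across replicate spots of either probe orientation.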
For “ATTAGCTACAAACAAAGGCTACCTATAGCAAGAGGG [GTGCAC_negctrl_site33]”, the “gcPBM binding intensity (ln)” value was 9.84.

Regarding “AATTTAATCCGTAATAAGAAAAGAAAAAAAAAAAGA [GTGCAC_negctrl_site129]”, the “gcPBM binding intensity (ln)” value is 9.55.

For “CCAATACATAGAAACTGTACATTATGCATTATACAC [XGTACX_site3531]”, the “gcPBM binding intensity (ln)” value came out at 9.74. The same measure for “AATATCTAAATAAAGTGTACTTACCTTATTAATTAT [XGTACX_site2276]”: 9.64; for “ATCGAAGGGGTACAAAATAAAAATAATTCTTTCAAA [TGCATGCA_negctrl_site373]”: 9.38; for “TATAAATAAATATGGAGTACCAAAAAAATTATAAAA [XGTACX_site7581]”: 9.74.

Regarding “AAGTGTTATGAAATATGTACACATATATTATATATA [XGTACX_site6022]”, the “gcPBM binding intensity (ln)” value stood at 9.72.

In the case of “ATACAAATTAAGCCTCAAGTTCTTTTTTTTAACATA [XGTACX_negctrl_site580]”, the “gcPBM binding intensity (ln)” value stood at 9.5. With “ATATAACATGGACACACACACATATATATATATTAT [CACACA_site6135]” the figure was 10.4. With “GTGAAATTATATTTTTGTACATATATTATATATTAT [XGTACX_site3387]” the figure was 9.86. As to “AAAAAAAAGAATTATTGTACAAAAGAACAATAAATA [XGTACX_site1368]”, the “gcPBM binding intensity (ln)” value came to 9.74. As to “GGTGCACCCATATACACACACAAATACAATGATAAA [CACACA_site1132]”, the “gcPBM binding intensity (ln)” value is 10.2. For the sequence “ATATATATATATATATGTACATACCCAATTGTGTAA [XGTACX_site6352]”, the “gcPBM binding intensity (ln)” value amounted to 10.2. Turning to “ATTTAAAATGGTTATACACACATAAAAGGGGAAATG [CACACA_site2649]”, the “gcPBM binding intensity (ln)” value was 10.1. With “TACAGACATACATACACACATACATATATATATATA [CACACA_site1940]” the figure was 10.2. Take “AAATATAAAAAAAAAAGTACTTTGTTACTTTTCTAT [XGTACX_site6034]”: the “gcPBM binding intensity (ln)” value is 9.43. Regarding “TTTTTATTAAATAAAGCACACACAACAACTTTTCAC [CACACA_site9372]”, the “gcPBM binding intensity (ln)” value is 10.2. Turning to “AAAATAAATATAACCACACACGAAAGAGAGAGAAAA [CACACA_site3272]”, the “gcPBM binding intensity (ln)” value amounted to 10.5.

Regarding “TAACCATAAGAAGATTGTACATAATAAAAGTATTCT [XGTACX_site1117]”, the “gcPBM binding intensity (ln)” value came out at 9.63. In the case of “AACTGCAAAAAAAGACGTACAAATTATTAATTGCAA [XGTACX_site8929]”, the “gcPBM binding intensity (ln)” value stood at 9.68. “TTCTTTTTTTTTAAAACAAACAAACAAACAAACAAA [CACACA_negctrl_site832]”: the “gcPBM binding intensity (ln)” value came to 9.41. “TATTTATTTATTTAGTGTACATTTATATTTGTTCAT [XGTACX_site7575]”: the “gcPBM binding intensity (ln)” value was determined as 9.81.

For “TTAATCTTTCCTACATGTACACACAGAAAAAAAAAA [XGTACX_site5213]”, the “gcPBM binding intensity (ln)” value is 9.58. With “TATCCATATTTGTTCACACACACACCCATTTATATA [CACACA_site3571]” the figure was 11. As to “ATTTTTATGTTGAAAAGTACTTGAATCCCATGTAAC [XGTACX_site4453]”, the “gcPBM binding intensity (ln)” value was found to be 9.5. The same measure for “ATACAAAATCTAATTTGTACACAATGTTTGATTTTT [XGTACX_site5438]”: 9.65. For the sequence “AATATAAATAAAAAATTGATTTCTTTAAAAAGGTAT [CACACA_negctrl_site1038]”, the “gcPBM binding intensity (ln)” value was 9.64. As for “TACAAATGAGAAATATGTACATAAAAAAAAAAAAAT [XGTACX_site801]”, the “gcPBM binding intensity (ln)” value is 9.9. Regarding “TTGTTCTTTCAAATTATACACACCAAAAAAAAAAAA [CACACA_site3070]”, the “gcPBM binding intensity (ln)” value was found to be 9.47. Turning to “TAATCATAAAAAAATACACACATATATAATATATAT [CACACA_site1983]”, the “gcPBM binding intensity (ln)” value turned out to be 9.98. With “TATCTTCATTGTTGACGTACAGTATTTCTAAACGTT [XGTACX_site3439]”, the “gcPBM binding intensity (ln)” value is 9.67. The same measure for “TTTTTTCTTTTTTTTTTTAATTATAAACATGATATT [GTGCAC_negctrl_site144]”: 9.47. Turning to “TAAATATATATAACATGTACATAAAATATATATATA [XGTACX_site4431]”, the “gcPBM binding intensity (ln)” value was found to be 9.69.

“TACACATACAGACATACACACATACACATATACACA [CACACA_site6918]”: the “gcPBM binding intensity (ln)” value turned out to be 10.5. As to “CCACTTGTGTAATGTTGTACAAAAATAAATATATTT [XGTACX_site4598]”, the “gcPBM binding intensity (ln)” value amounted to 9.59. The same measure for “CTATGAACACACACATGTACATATATTAACTCGCTA [XGTACX_site8805]”: 9.98; for “ATAATTAAAAATAATATATATATAATATGATATTAT [GTGCAC_negctrl_site194]”: 9.51. The same measure for “CGAGCAAGACGGGGTGCACACAAACTAATATGCCGA [CACACA_site7936]”: 9.94; for “ATTATTATGTAGAAGGTGCTATGTTCTATAAATATA [GTGCAC_site9545]”: 9.68; for “TACCTTTATTAATAAAGTACATTAATCTGTGTATAC [XGTACX_site8720]”: 9.61.

On to “CATAAAAATGAACATACACACATATATATATATATA [CACACA_site2498]”, for which the “gcPBM binding intensity (ln)” value stood at 9.69. With “TTGCTTTCTTTTTTTTGTACTCATATCTACTATCAT [XGTACX_site7711]” the figure was 9.85.

Turning to “AGGCCTTTTAGTATTTCACACACGTAAATGCGTATA [CACACA_site1108]”, the “gcPBM binding intensity (ln)” value was 9.76. In the case of “AAAAAAAAAAAAATGTGGACACAATTGTGTGTTTGT [XGTACX_site3563]”, the “gcPBM binding intensity (ln)” value was 10.1.

The record behind these values is the supplement of paper PMC11417369.
